The results in this text go back to the supplement of paper PMC9446081.

Among all 39,000 compounds or so, about 220 (0.56%) showed activity. Some of the results follow.
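Note: static incubation at 37 °C against the wild-type strain, values averaged over two biological replicates.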

The subject of the assay is Escherichia coli K-12 BW25113. The assay can be described thus: relative growth (OD600 normalised to plate interquartile mean) (fraction); higher = less growth inhibition, active = 0.2 or less. The note with it: 50 µM; LB; incubation time: overnight (16-24 h).
For the compound `O=C1N[C@@H](Cc2ccccc2)C(=O)N2[C@@H]1C[C@@H](C(=O)NCc1ccc(F)cc1)[C@H]2c1cccc(OCCO)c1`, the relative growth was inactive: 0.993.

Regarding `C[C@@H]1CN([C@@H](C)CO)C(=O)c2cc(NS(=O)(=O)c3ccc(F)cc3)ccc2O[C@@H]1CN(C)CC1CC1`, the relative growth is inactive: 0.992.

With `O=C(C[C@@H]1CC[C@H]2NC[C@@H](O)COC[C@@H]2O1)NCCN1CCCC1`, the relative growth is inactive: 0.977.

For `Cc1ccc(S(=O)(=O)N2C[C@H](O)COC[C@H]3O[C@@H](CC(=O)N[C@H]4CCN(Cc5ccccc5)C4)CC[C@@H]32)cc1`, the relative growth is inactive: 1.05.

`Cc1ccc(S(=O)(=O)N(C)C[C@H]2Oc3ccc(NC(=O)Nc4ccc(C(F)(F)F)cc4)cc3CC(=O)N([C@@H](C)CO)C[C@H]2C)cc1`: the relative growth was inactive: 1.01.

In the case of `O[C@@H](Cc1ccccc1)[C@@H](/C=C/C1CC1)N(CC#Cc1ccccc1)Cc1ccccc1Br`, the relative growth was inactive: 1.01.

`COc1ccc(-c2ccc3c(c2)O[C@H](CN(C)CC2CCOCC2)[C@@H](C)CN([C@H](C)CO)S3(=O)=O)cc1`: the relative growth was inactive: 1.02.

As to `COc1cccc(NC(=O)N2C[C@@H](O)COC[C@H]3O[C@@H](CC(=O)NCc4ccccc4F)CC[C@@H]32)c1`, the relative growth was inactive: 0.917.

With `Cn1nc(C2CC2)cc1N`, the relative growth is inactive: 1.01.

As for `Cc1cc(-c2nnc(N)o2)nn1C`, the relative growth was inactive: 0.983.

For the compound `C[C@@H]1CCCCO[C@@H](CN(C)C(=O)C2CCCCC2)[C@@H](C)CN([C@@H](C)CO)C(=O)c2cc(NC(=O)C3CCCCC3)ccc2O1`, the relative growth is inactive: 0.991.

`C[C@H]1CCCCO[C@@H](CN(C)C(=O)Nc2ccc(F)cc2)[C@@H](C)CN([C@@H](C)CO)C(=O)c2cc(NS(=O)(=O)c3cccs3)ccc2O1`: the relative growth is inactive: 0.992.

As for `O=c1c(O)cc(C2Oc3cc(O)cc(O)c3CC2O)cc2c(C3Oc4cc(O)cc(O)c4CC3O)cc(O)c(O)c12` (stereo unspecified), the relative growth was inactive: 1.03.

`C[C@@H]1CN([C@@H](C)CO)C(=O)c2cc(NC(=O)Nc3ccc(C(F)(F)F)cc3)ccc2O[C@H]1CN(C)S(=O)(=O)c1ccc(Cl)cc1`: the relative growth is inactive: 0.976.

Regarding `O=C(CCCCC(=O)N/N=C/[C@@H](O)[C@H](O)[C@H](O)CO)NO`, the relative growth was inactive: 0.976.

For the compound `C[C@@H]1CCCCO[C@@H](CN(C)C(=O)Nc2ccccc2)[C@H](C)CN([C@@H](C)CO)C(=O)c2cc(NC(=O)C3CCCCC3)ccc2O1`, the relative growth is inactive: 1.02.

Regarding `C[C@H](CO)N1C[C@H](C)[C@@H](CN(C)Cc2ccc(Cl)c(Cl)c2)Oc2ccc(NC(=O)CCCCCC(=O)Nc3ccccc3N)cc2C1=O`, the relative growth is inactive: 0.968.

Regarding `C[C@@H]1CCCCO[C@@H](CN(C)C(=O)Nc2ccc(C(F)(F)F)cc2)[C@H](C)CN([C@@H](C)CO)C(=O)c2cc(N(C)C)ccc2O1`, the relative growth was inactive: 0.987.

Take `C[C@@H]1CN([C@H](C)CO)C(=O)Cc2cc(NC(=O)Cc3ccccc3)ccc2O[C@H]1CN(C)S(=O)(=O)c1cccs1`: the relative growth was inactive: 1.

In the case of `C[C@H](CO)N1C[C@H](C)[C@H](CN(C)S(=O)(=O)c2cccs2)Oc2ncc(C#Cc3ccc(F)cc3)cc2C1=O`, the relative growth is inactive: 1.02.

On to `CCN(CC)c1ccc(N2CC=C[C@@]34O[C@@H]5C=CCCOC(=O)[C@@H]5[C@H]3C(=O)N([C@@H](C)CO)[C@@H]4C2=O)cc1`, for which the relative growth was inactive: 0.963.

On to `CO[C@@H]1CN(C)C(=O)c2ccc(NC(=O)CN(C)C)cc2OC[C@@H](C)N(C(=O)c2ccncc2)C[C@H]1C`, for which the relative growth is inactive: 1.01.

Regarding `C[C@H](CO)N1C[C@H](C)[C@H](CN(C)C(=O)NC2CCCCC2)OCc2ccccc2-c2c(n(C)c3ccccc23)C1=O`, the relative growth was inactive: 1.

For `COc1ccc(NC(=O)N(C)C[C@@H]2Oc3c(NC(=O)C4CC4)cccc3C(=O)N([C@H](C)CO)C[C@@H]2C)cc1`, the relative growth was inactive: 1.03.

For the compound `C[C@@H]1CN([C@@H](C)CO)C(=O)c2ccccc2-c2ccccc2CO[C@@H]1CN(C)Cc1ccccc1C(F)(F)F`, the relative growth was inactive: 1.04.

For `C[C@H](CO)N1C[C@H](C)[C@@H](CN(C)C(=O)Nc2ccc(C(F)(F)F)cc2)Oc2ccc(NC(=O)Cc3cn(C)c4ccccc34)cc2CC1=O`, the relative growth was inactive: 1.02.

Take `Cc1nnc(CN)o1`: the relative growth is inactive: 0.983.

Regarding `C[C@H](CO)N1C[C@H](C)[C@H](CN(C)CC2CC2)Oc2c(NS(=O)(=O)c3cccs3)cccc2C1=O`, the relative growth is inactive: 0.99.

As to `C[C@@H]1CN([C@H](C)CO)C(=O)c2cc(NC(=O)NC3CCCCC3)ccc2O[C@@H]1CN(C)Cc1ccc(Cl)c(Cl)c1`, the relative growth was inactive: 0.919.

Regarding `N=c1sccn1CC(=O)O`, the relative growth is inactive: 1.04.

Take `O=C(C[C@@H]1CC[C@@H](NC(=O)Nc2ccc3c(c2)OCO3)[C@@H](CO)O1)NCCCN1CCOCC1`: the relative growth is inactive: 1.03.

Take `Cn1cnc(CCNC(=O)C[C@H]2CC[C@H]3[C@@H](COC[C@H](O)CN3C(=O)Nc3ccc(C(F)(F)F)cc3)O2)c1`: the relative growth was inactive: 0.99.

As for `C[C@H](CO)N1C[C@H](C)[C@@H](CN(C)S(=O)(=O)c2ccccc2)Oc2c(NS(=O)(=O)c3ccccc3)cccc2C1=O`, the relative growth was inactive: 0.994.

Turning to `C[C@H](CO)N1C[C@H](C)[C@H](CN(C)S(=O)(=O)c2ccccc2C#N)OCc2cn(nn2)CCCC1=O`, the relative growth is inactive: 0.995.

For `C[C@H]1CN([C@@H](C)CO)C(=O)c2cccc(NC(=O)Nc3cccc4ccccc34)c2O[C@H]1CN(C)S(=O)(=O)c1cccs1`, the relative growth was inactive: 1.02.

Regarding `CCCC1CC(C(=O)NC(C(C)O)C2OC(SC)C(O)C(O)C2O)N(C)C1.Cl` (stereo unspecified), the relative growth is inactive: 0.873.

Consider `C[C@@H]1CN([C@H](C)CO)C(=O)c2cc(NC(=O)CCCN(C)C)ccc2O[C@H]1CN(C)Cc1ccncc1`, for which the relative growth was inactive: 0.996.

With `COc1ccc(CN(C)C[C@@H]2Oc3c(NC(=O)Nc4ccc(C(F)(F)F)cc4)cccc3C(=O)N([C@@H](C)CO)C[C@H]2C)cc1`, the relative growth is inactive: 0.818.

Turning to `CN(C)CCOC(c1ccc(Cl)cc1)c1ccccn1.O=C(O)C=CC(=O)O` (stereo unspecified), the relative growth is inactive: 0.986.

As for `C[C@@H](N)C1CCC(C(=O)Nc2ccncc2)CC1` (stereo partly specified), the relative growth is inactive: 1.04.

Consider `O=C(O)CCCCCCC(=O)Nc1ccc([C@H]2O[C@@H](CSc3ccncc3)C[C@H](c3ccccc3)O2)cc1`, for which the relative growth was inactive: 0.985.
